# Experimental data as given in the supplement of paper PMC9446081.
# Hit rate of the full screen: of about 39,000 compounds, about 220 (0.56%) showed activity. This is one part of the list.
# System: Escherichia coli K-12 BW25113
# Assay: relative growth (OD600 normalised to plate interquartile mean) (fraction); higher = less growth inhibition, active = 0.2 or less
# Details: 50 µM; LB; incubation time: overnight (16-24 h)
# 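Further: static incubation at 37 °C against the wild-type strain, values averaged over two biological replicates.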
row,Compound,relative growth
1,COc1ccc(NC(=O)Nc2ccc3c(c2)C(=O)N([C@@H](C)CO)C[C@@H](C)[C@H](CN(C)Cc2ccc(Cl)c(Cl)c2)OCCCC[C@@H](C)O3)cc1,inactive: 1.02
2,CC[C@@H](C)NCc1sccc1C,inactive: 1.05
3,Cc1ccc(S(=O)(=O)N(C)C[C@H]2OCCCC[C@@H](C)Oc3ccc(NC(=O)NC4CCCCC4)cc3C(=O)N([C@H](C)CO)C[C@@H]2C)cc1,inactive: 0.994
4,O=C(CCC1CCCCC1)NCCC12CC3CC(CC(C3)C1)C2,inactive: 1.03
5,CC(C)CC#Cc1ccc2c(c1)O[C@@H](CN(C)C(=O)Cc1ccccn1)[C@H](C)CN([C@@H](C)CO)S2(=O)=O,inactive: 0.99
6,COc1ccc(S(=O)(=O)N(C)C[C@H]2Oc3ncc(-c4ccncc4)cc3C(=O)N([C@H](C)CO)C[C@H]2C)cc1,inactive: 0.987
7,C[C@@H]1CN([C@@H](C)CO)S(=O)(=O)c2ccc(C#C[C@@H](C)O)cc2O[C@@H]1CN(C)C(=O)c1ccncc1,inactive: 1
8,O=C(NCC(F)(F)F)[C@@H]1c2ccccc2C(=O)N(CC23CC4CC(CC(C4)C2)C3)[C@H]1c1ccc(CO)cc1,inactive: 0.977
9,C[C@H]1CN([C@@H](C)CO)C(=O)c2cc(-c3cccnc3)cnc2O[C@@H]1CN(C)Cc1ccc(-c2ccccc2)cc1,inactive: 1
10,C[C@H](CO)N1C[C@H](C)[C@@H](CN(C)C(=O)Cc2ccncc2)Oc2cc(C#CC3(O)CCCC3)ccc2S1(=O)=O,inactive: 0.994
11,C[C@@H]1CN([C@@H](C)CO)C(=O)CCCn2cc(nn2)CO[C@H]1CN(C)S(=O)(=O)c1ccc(Oc2ccccc2)nc1,inactive: 1.04
12,CC(C)N1CCOC[C@@]2(C1)CN(S(C)(=O)=O)CCO2,inactive: 1.01
13,Cc1noc(C)c1S(=O)(=O)Nc1ccc2c(c1)CC(=O)N([C@@H](C)CO)C[C@H](C)[C@@H](CN(C)Cc1ccc(C(=O)O)cc1)O2,inactive: 1.01
14,CC1(C)C2CCC1(C)C(O)C2 (stereo not drawn),inactive: 0.908
15,N[C@H](C(=O)O)c1ccc(C(=O)O)c(C(=O)O)c1,inactive: 1
16,O=C(Nc1cccc2cccnc12)[C@@H]1[C@H](c2ccc(Br)cc2)CC(=O)N1C(=O)OCc1ccccc1,inactive: 1.02
17,O=C(C[C@H]1C[C@H]2c3cc(NC(=O)Nc4ccc(C(F)(F)F)cc4)ccc3O[C@H]2[C@H](CO)O1)NC1CCCCC1,inactive: 1.01
18,O=C(Nc1nc(OCCN2CCCC2=O)cnc1-c1cc(Cl)cc(Cl)c1)c1cc2ccccc2s1,inactive: 1.01
19,Cc1ccc(CNS(=O)(=O)N(C)C)cc1,inactive: 0.983
20,CC(C)CC#Cc1ccc2c(c1)O[C@H](CN(C)C(=O)C1CCOCC1)[C@@H](C)CN([C@H](C)CO)S2(=O)=O,inactive: 0.959
21,CN(C)CCOC(=O)C(c1ccccc1)C1(O)CCCC1.Cl (stereo not drawn),inactive: 1.06

row,Compound,relative growth
1,COCC(=O)Nc1c(I)c(C(=O)NC[C@@H](O)CO)c(I)c(C(=O)N(C)C[C@@H](O)CO)c1I,inactive: 0.976
2,CC(C)(C)CC(=O)N1C[C@@H]2c3nc(N4CCOCC4)ncc3CS(=O)(=O)[C@H]2C1,inactive: 0.995
3,Nc1ccn([C@@H]2O[C@H](CO)[C@@H](O)[C@H]2O)c(=S)n1,inactive: 0.94
4,NCC[C@@H]1CC[C@H](NC(=O)c2ccccc2F)[C@H](CO)O1,inactive: 1.01
5,O=S(=O)(NCC[C@@H]1CC[C@@H](NS(=O)(=O)c2ccccc2Cl)[C@@H](CO)O1)c1ccc(Cl)cc1,inactive: 0.969
6,C[C@H](CO)N1C[C@H](C)[C@@H](CN(C)C(=O)Nc2ccc(C(F)(F)F)cc2)Oc2ccc(NC(=O)CCC(F)(F)F)cc2CC1=O,inactive: 0.941
7,C[C@H](CO)N1C[C@H](C)[C@@H](CN(C)C(=O)CCN2CCCCC2)Oc2ncc(C#Cc3ccccn3)cc2C1=O,inactive: 1.02
8,CCc1nc2ccc(C(=O)Nc3cc(-c4ccccc4)ccc3OC)cn2c1N(CCN(C)C)CC1CC1,inactive: 0.974
9,C[C@@H]1CCCCO[C@H](CN(C)S(=O)(=O)c2ccccc2)[C@@H](C)CN([C@@H](C)CO)C(=O)c2cc(NC(=O)Nc3cccc4ccccc34)ccc2O1,inactive: 1.05
10,COc1ccc(S(=O)(=O)Nc2ccc3c(c2)C(=O)N([C@@H](C)CO)C[C@H](C)[C@H](CN(C)S(=O)(=O)c2ccc(OC)cc2)O3)cc1,inactive: 1.01
11,COCC(=O)N1C[C@H](C)[C@H](OC)CN(C)C(=O)c2cc(NC(=O)c3ccc(OC)cc3)ccc2OC[C@H]1C,inactive: 1.02
12,CN1C(=O)[C@@H]2CN(c3ncccn3)C[C@@H]2C12CCN(S(C)(=O)=O)CC2,inactive: 0.946
13,C[C@@H]1CN([C@H](C)CO)C(=O)Cc2cc(NC(=O)CCC(F)(F)F)ccc2O[C@H]1CN(C)S(C)(=O)=O,inactive: 0.993
14,CC(C)CC#Cc1ccc2c(c1)O[C@@H](CN(C)CC1CCOCC1)[C@@H](C)CN([C@H](C)CO)S2(=O)=O,inactive: 1.03
15,C[C@H](CO)N1C[C@H](C)[C@H](CN(C)C(=O)Nc2ccc3c(c2)OCO3)Oc2ncc(-c3cncnc3)cc2C1=O,inactive: 1.02
16,Cc1cc(C(=O)Nc2cccc3c2O[C@@H](CN(C)S(=O)(=O)c2ccccc2)[C@H](C)CN([C@@H](C)CO)C3=O)n(C)n1,inactive: 1.01
17,C[C@@H]1CN([C@H](C)CO)C(=O)c2cc(NC(=O)CCCCCC(=O)Nc3ccccc3N)ccc2O[C@@H]1CN(C)S(=O)(=O)c1cn(C)cn1,inactive: 0.997
18,CC1(C)C(=O)NCCN1C(=O)C1CC1,inactive: 1
19,O[C@H]1[C@H](O)[C@@H](O)[C@H](O)[C@@H](O)[C@H]1O,inactive: 1.01
20,C[C@H](CO)N1C[C@H](C)[C@@H](CN(C)C(=O)Nc2cccc3ccccc23)Oc2ccc(NS(=O)(=O)c3ccc(F)cc3)cc2C1=O,inactive: 1.01
21,CN1C(=O)c2cc(NC(=O)C3CCC3)ccc2OC[C@H]2O[C@H](CC(=O)NCCc3ccncc3)CC[C@@H]21,inactive: 0.978

row,Compound,relative growth
1,C[C@H]1CN([C@@H](C)CO)C(=O)Cc2cc(NC(=O)CCCCCC(=O)Nc3ccccc3N)ccc2O[C@H]1CN(C)Cc1ccc(C(F)(F)F)cc1,inactive: 1.02
2,C[C@@H]1CN([C@@H](C)CO)C(=O)c2cc(NS(=O)(=O)c3cn(C)cn3)ccc2O[C@@H](C)CCCCO[C@H]1CN(C)C(=O)CCCN(C)C,inactive: 0.97
3,Nc1ccc(S(=O)(=O)[N-]c2cnc3ccccc3n2)cc1.[Na+],inactive: 0.994
4,C[C@H]1CN([C@@H](C)CO)C(=O)c2cc(NC(=O)CCN3CCOCC3)ccc2O[C@@H]1CN(C)Cc1ccc(C(=O)O)cc1,inactive: 1
5,C#CCN([C@H](/C=C/C1CC1)[C@@H](O)Cc1ccccc1)[C@@H](Cc1ccc(-n2cc(COc3ccccc3/C=C(C)/C=C/C(=O)NO)nn2)cc1)C(=O)OC,inactive: 0.983
6,CC(=O)Nc1cccc(S(N)(=O)=O)c1,inactive: 0.995
7,Cc1ccc(S(=O)(=O)N(C)C[C@H]2Oc3ccc(NC(=O)Nc4ccc(C(F)(F)F)cc4)cc3C(=O)N([C@@H](C)CO)C[C@H]2C)cc1,inactive: 1.01
8,C[C@@H]1O[C@@H](O[C@@H]2[C@@H](O)[C@H](OCCc3ccc(O)c(O)c3)O[C@H](CO)[C@H]2OC(=O)/C=C/c2ccc(O)c(O)c2)[C@H](O)[C@H](O)[C@H]1O,inactive: 0.993
9,Cc1ccc(S(=O)(=O)N2C[C@H](O)COC[C@@H]3O[C@@H](CC(=O)NCc4ccc5c(c4)OCO5)CC[C@H]32)cc1,inactive: 1.03
10,CC(C)NC(=O)Nc1ccc2c(c1)C(=O)N([C@@H](C)CO)C[C@@H](C)[C@@H](CN(C)CC1CCCCC1)OCCCC[C@@H](C)O2,inactive: 0.997
11,C[C@H](CO)N1C[C@H](C)[C@@H](CN(C)S(=O)(=O)c2ccccc2)Oc2ccc(NC(=O)c3ccncc3)cc2C1=O,inactive: 1.01
12,COc1ccc(S(=O)(=O)Nc2cccc3c2O[C@@H](CN(C)S(=O)(=O)c2ccc(OC)cc2)[C@@H](C)CN([C@@H](C)CO)C3=O)cc1,inactive: 1.01
13,COc1ccc(NC(=O)N(C)C[C@@H]2Oc3ccc(NC(=O)Nc4ccc(C(F)(F)F)cc4)cc3C(=O)N([C@H](C)CO)C[C@@H]2C)cc1,inactive: 0.981
14,COc1cc2c(cc1OC)C1Cc3ccc(OC)c(OC)c3CN1CC2 (stereo not drawn),inactive: 1.12
15,C[C@H](CO)N1C[C@H](C)[C@H](CN(C)S(=O)(=O)c2ccc(F)cc2)OCCCC[C@H](C)Oc2ccc(NC(=O)Nc3ccc4c(c3)OCO4)cc2C1=O,inactive: 1
16,C[C@H](O)C#Cc1ccc2c(c1)O[C@@H](CN(C)C(=O)C1CCCCC1)[C@@H](C)CN([C@@H](C)CO)S2(=O)=O,inactive: 1.01
17,CC(=O)N1CC2(CCN(CC(=O)N3CCOCC3)CC2)C[C@@H]1C(=O)O,inactive: 1.02
18,C[C@H]1CN([C@@H](C)CO)S(=O)(=O)c2ccc(C#CCC3CCCC3)cc2O[C@@H]1CN(C)C(=O)c1cnccn1,inactive: 1.04
19,CN1CCN(C(=O)C[C@@H]2CC[C@H]3[C@H](COc4ccc(NC(=O)c5cccs5)cc4C(=O)N3C)O2)CC1,inactive: 0.979
20,C[C@H]1CN([C@@H](C)CO)S(=O)(=O)c2ccc(C#CC3(O)CCCC3)cc2O[C@@H]1CN(C)C(=O)c1cccnc1,inactive: 0.992
21,Cc1ccc(S(=O)(=O)N(C)C[C@H]2Oc3c(NS(=O)(=O)c4ccc(F)cc4)cccc3C(=O)N([C@@H](C)CO)C[C@@H]2C)cc1,inactive: 0.997
